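These data come from cells grown in 96-well plates and exposed to compound for 48 hours at five concentrations. GI50: concentration for 50% inhibition of growth. TGI: total growth inhibition.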
System: NCI-H322M lung
Experiment: NCI anticancer screen, dose series, 48 h

Structure (SMILES): Cc1cccc(-c2nc(Nc3ccc(C)c(S(N)(=O)=O)c3)c3ccccc3n2)c1
- GI50: 11.4 µM
- TGI: 27.7 µM

From PubChem BioAssay (NCI)
